Test results: patent US9809808B2, “Antimicrobial agents” (KATHOLIEKE UNIVERSITEIT LEUVEN K.U. LEUVEN R&D, priority 2008, dated 2017)

Assays:
[1] = tested on: P. aeruginosa PAO1p; format: cell-based, Pseudomonas aeruginosa
[2] = tested on: P. aeruginosa PAO1p cells; assay: Antibacterial activity of phiKZgp144 variants with different polycationic peptide stretches (colony count after 1 hour); details: for Reduction [%] (relative inactivation): 100 μg/ml undialyzed protein, room temperature
[3] = tested on: Acinetobacter baumannii DSMZ 30007; format: cell-based; details: 100 μg/ml undialyzed protein, 1 hour, room temperature
[4] = tested on: P. aeruginosa PAO1p cells; assay: Antibacterial activity of unmodified and modified phiKZgp144 and ELgp188 (colony count after 1 hour); format: cell-based, Pseudomonas aeruginosa; details: 1 hour
[5] = tested on: P. aeruginosa PAO1p; format: cell-based, Pseudomonas aeruginosa; details: 100 μg/ml undialyzed protein, 1 hour, room temperature
[6] = tested on: P. aeruginosa PAO1p; assay: Antibacterial activity of P2gp09 and PKP2gp09 with and without EDTA (30 minutes, colony count); format: cell-based, Pseudomonas aeruginosa; details: 0.5 mM EDTA, no endolysin, 30 minutes
[7] = tested on: P. aeruginosa PAO1p; assay: Antibacterial activity of PSP3gp10 and PKPSP3gp10 with and without EDTA (30 minutes, colony count); format: cell-based, Pseudomonas aeruginosa; details: 0.5 mM EDTA, no endolysin, 30 minutes
[8] = 1.313 μM endolysin, no EDTA, 30 minutes
[9] = exponentially growing cells, 100 μg/ml undialyzed protein, room temperature

Molecule	relative inactivation in logarithmic units (log10N0/Ni) [1]	relative inactivation in logarithmic units (log10N0/Ni) [1, 8]	Reduction [%] (relative inactivation) [2]	Reduction [%] (relative inactivation) [3]	further results
OBPgpLYS: SEQ ID NO: 7: unmodified modular endolysin of 328 amino acid residues originating from Pseudomonas putida phage OBP	4.357 +/− 1.857 logarithmic units	2.531 +/− 0.173 logarithmic units			
phiKZgp144: SEQ ID NO: 1: unmodified modular endolysin originating from Pseudomonas aeruginosa phage φKZ [reference compound]			0	0	reduction of cell numbers / antimicrobial effect (in words) ([2]; 100 μg/ml): does not reduce cell numbers significantly; reduction of cell numbers compared to the negative control (in words) ([4]; 100 μg/ml, student's t-test, α=0.05): do not reduce cell numbers significantly; antibacterial activity as relative inactivation (%) [4, 9]: 0 ± 15%; antibacterial activity in logarithmic units (log10N0/Ni) [4, 9]: 0.00 ± 0.06 log; Reduction [%] (relative inactivation) [5]: 0%
O=C([O-])CN(CCN(CC(=O)[O-])CC(=O)O)CC(=O)O.[Na+].[Na+] [EDTA, reference compound]					relative inactivation in logarithmic units (log10N0/Ni) ([1]; 0.5 mM EDTA, no endolysin, 30 minutes): 0.130 +/− 0.023 logarithmic units; relative inactivation in logarithmic units (log10N0/Ni) [6]: 0.330 logarithmic units; relative inactivation in logarithmic units (log10N0/Ni) [7]: 0.146 +/− 0.002 logarithmic units
PKOBPgpLYS: SEQ ID NO: 61: OBPgpLYS (SEQ ID NO: 7) with N-terminal peptide stretch KRKKRKKRK (SEQ ID NO: 11)	>5.687 logarithmic units	3.079 +/− 0.015 logarithmic units			
pK2KZ144_pET32b_mod3: SEQ ID NO: 49: phiKZgp144 with 38-residue N-terminal peptide stretch with linker (SEQ ID NO: 28) (protein, pK2KZ144_pET32b_mod3) AMGSKRKKRKKRKRGSGSGKRKKRKKRKRGSGSGKRKKRKKRKKVLRKGDRGDEVCQLQTLLNLCGYDVGKPDGIFGNNTFNQVVKFQKDNCLDSDGIVGKNTWAELFSKYSPPIPYKTIPMPTANKSRAAATPVMNAVENATGVRSQLLLTFASIESAFDYEIKAKTSSATGWFQFLTGTWKTMIENYGMKYGVLTDPTGALRKDPRISALMGAELIKENMNILRPVLKREPTDTDLYLAHFFGPGAARRFLTTGQNELAATHFPKEAQANPSIFYNKDGSPKTIQEVYNLMDGKVAAHRK			99.9		
KRK9_smi01: SEQ ID NO: 75: modified variant of smi01 with peptide stretch KRKKRKKRK (SEQ ID NO: 11) (protein, smi01_KRK9) AMGSKRKKRKKRKEYDMILKFGSKGDAVATLQKQLAKMGYKGVKDKPLSVDGHFGESTEFAVIQLQRKFGLVADGKVGDKTRQALAGDSVSKFLKDEDYKKAAIRLKVPELVIRVFGAVEGLGVGFLPNGKAKILFERHRMYFYLCQALGKTFANSQVKITPNIVNTLTGGYKGDAAEYTRLSMAINIHKESALMSTSWGQFQIMGENWKDLGYSSVQEFVDQQQLNEGNQLEAFIRFIEWKPGLLEALRKQDWDTVFTLYNGKNYKKLGYQAKFQKEWDHLEPIYREKTAA				50	

Where two headings read alike, the source gives them in different places.
